# Test results from PubChem BioAssay (Tox21).
# Several values for one entry are separate records, joined by “and”; a condition that tells them apart may be missing. Equal entries are not always repeated. The inconclusive results got no clear call from the source; some entries with a clear call stand among them for comparison. Potencies beside an inconclusive call are fits to weak or partial responses and may not hold up. Activity calls are given as the source filed them. Unless noted, the call rests on the fitted dose curve; in most records, active means well fitted curve in the direction sought with a large enough effect in the repeat runs; inconclusive means weak or mixed curves; inactive means no such curve, though single readings can be large; an effect the other way counts as inactive or inconclusive.
# Biological target: Androgen receptor (Homo sapiens) (UniProt P10275)
# Assay: qHTS assay to identify small molecule agonists of the androgen receptor (AR) signaling pathway (AID 743036; active means well fitted activation curve with a large enough effect in the signal ratio in the repeat runs, with a control signal flat, not every such curve was filed as active; inconclusive means weak or mixed curves, or effect the other way; inactive means no such curve, though single readings can be large or run the other way; the % refers to the signal ratio)
# Conditions: HEK293 AR-UAS-bla GripTite, beta-lactamase FRET ratio, 16 h; activation: at 62.4 µM (top of the series) unless noted
# Summary of the method: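 AR-bla HEK293 cells, 2,000/well; 4 h preincubation 37C/5% CO2; compound (DMSO) 16 h at 37C; LiveBLAzer B/G FRET substrate 2 h RT; fluorescence intensity read-out.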
# On the % scale 0 is the no-effect control and ±100 the full control effect; potency means the concentration at half of the fitted maximal effect; tags describe the fitted curve by direction and shape or compound fluorescence and quenching.
# Sequence of UniProt P10275 (P10275 whole entry, looked up): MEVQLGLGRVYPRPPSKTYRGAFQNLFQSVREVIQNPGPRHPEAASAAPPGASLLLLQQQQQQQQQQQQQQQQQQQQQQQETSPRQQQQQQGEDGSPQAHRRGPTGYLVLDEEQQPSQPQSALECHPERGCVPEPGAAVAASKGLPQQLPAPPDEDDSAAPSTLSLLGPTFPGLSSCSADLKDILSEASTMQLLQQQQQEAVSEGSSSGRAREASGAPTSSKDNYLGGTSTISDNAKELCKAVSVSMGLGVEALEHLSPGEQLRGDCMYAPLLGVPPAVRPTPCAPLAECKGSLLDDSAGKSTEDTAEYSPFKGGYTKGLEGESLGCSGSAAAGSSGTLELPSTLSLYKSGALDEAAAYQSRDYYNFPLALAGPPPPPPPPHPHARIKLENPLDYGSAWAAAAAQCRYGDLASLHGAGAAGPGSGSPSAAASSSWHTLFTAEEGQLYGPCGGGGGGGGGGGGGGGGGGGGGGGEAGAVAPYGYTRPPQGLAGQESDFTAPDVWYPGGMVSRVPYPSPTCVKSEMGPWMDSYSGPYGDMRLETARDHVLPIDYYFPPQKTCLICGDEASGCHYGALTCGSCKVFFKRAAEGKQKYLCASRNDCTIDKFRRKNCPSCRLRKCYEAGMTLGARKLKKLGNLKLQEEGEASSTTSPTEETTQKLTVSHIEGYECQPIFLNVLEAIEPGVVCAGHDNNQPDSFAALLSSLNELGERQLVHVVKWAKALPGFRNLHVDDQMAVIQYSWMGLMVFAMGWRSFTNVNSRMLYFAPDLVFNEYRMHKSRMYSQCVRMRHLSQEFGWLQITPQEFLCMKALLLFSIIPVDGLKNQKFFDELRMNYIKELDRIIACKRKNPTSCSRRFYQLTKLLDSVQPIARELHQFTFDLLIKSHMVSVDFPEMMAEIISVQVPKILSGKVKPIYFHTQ
Compound,Potency,activation
CN(C)C(=O)Nc1ccc(Cl)c(Cl)c1,"inconclusive: 48.8 µM [partial curve, poor fit]",–
CC(=O)N1C[C@H](O)C[C@H]1C(=O)O,inconclusive: 23.9 µM [activator],–
CCCCc1ccc2nc(NC(=O)OC)[nH]c2c1,–,inconclusive: 46.7% [at 29.2 µM]
CCOC(=O)/C=C/C(=O)O,inactive,–
C[C@H]1C[C@@H]2[C@H]([C@@H](O)C[C@@]3(C)[C@H]2CC[C@]3(O)C(=O)CO)[C@@]2(C)C=CC(=O)C=C12,active: 32.3 nM and active: 49 nM,–

# Biological target: Androgen receptor (Homo sapiens) (UniProt P10275)
# Assay: qHTS assay to identify small molecule agonists of the androgen receptor (AR) signaling pathway using the MDA cell line (AID 743040; further: nearly all actives have a fitted effect of over 20% in size)
# Conditions: MDA-kb2 AR-luc cells, MMTV luciferase, 16 h; activity change: at 70.3 µM (top of the series), active compounds read high unless noted
# Summary of the method: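 Testing was done with the MDA-kb2 AR-luc line, a human breast carcinoma stably transfected with MMTV-luciferase containing AR and GR response elements. Cells were exposed 16 h at 37C before ONE-Glo luminescence detection.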
Compound,Potency,activity change
Oc1ccc(/C=C/c2cc(O)cc(O)c2)cc1,"inconclusive: 2.85 µM [activator, full curve, poor fit]",–
Cc1ccc(N(C)C)cc1,–,inconclusive: 0.428% [phenotype inactive]
OCC(O)CS (stereo unspecified),–,"inconclusive: -0.0231% [phenotype inactive] [at 95 µM, active compounds read high]"
N#C/C(=C1\SCC(c2ccccc2Cl)S1)n1ccnc1 (stereo unspecified),inconclusive: 29.8 µM [activator],–
C/C(Cl)=C/CCl,–,"inconclusive: 2.95% [phenotype inactive] [at 95 µM, active compounds read high]"

# System: not listed separately
# Assay: qHTS assay to identify small molecule antagonists of the androgen receptor (AR) signaling pathway using the MDA cell line - cell viability counter screen (AID 743041; further: nearly all actives have a fitted effect of over 45% in size)
# Conditions: MDA-kb2 viability, CellTiter-Fluor, 16 h, cells co-treated with R1881 androgen agonist; viability change, negative = cytotoxic: at 70.3 µM (top of the series) unless noted
# Summary of the method: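 Compound exposure lasted 16 h at 37C in MDA-kb2 AR-luc cells stimulated with R1881. Protease-based CellTiter-Fluor reagent was applied for the final 30 min and fluorescence measured.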
Compound,"viability change, negative = cytotoxic",Potency
CC(C)c1ccccc1,inconclusive: 24% [at 95 µM],–
C=COCCCCO,–,inactive
CC(=O)OC/C=C(\C)CCC=C(C)C,–,inactive
CC[N+](CC)(CC(=O)Nc1c(C)cccc1C)Cc1ccccc1 (tested in a mixture with another compound),–,inactive
Cc1ccnc2ccccc12,–,inactive
CCCCCC/C(C=O)=C\c1ccccc1,–,"inconclusive: 61.1 µM [rising, single point]"
O=C1Nc2ccc([N+](=O)[O-])cc2C1=O,–,"inconclusive: 76.8 µM [cytotoxic, partial curve, poor fit]"
N[C@@H](CCC(=O)Nc1ccc([N+](=O)[O-])cc1)C(=O)O,–,"inconclusive: 54.5 µM [cytotoxic, partial curve]"
CCCN(CCC)C(=O)C(CCC(=O)O)NC(=O)c1ccccc1 (stereo unspecified),–,inactive
O=C(NCCO[N+](=O)[O-])c1cccnc1,–,inactive
CC1(C)O[C@@H]2C[C@H]3[C@@H]4CCC5=CC(=O)C=C[C@]5(C)[C@H]4[C@@H](O)C[C@]3(C)[C@]2(C(=O)CO)O1,–,inactive
CC1=CCC(O)(C(C)C)CC1 (stereo unspecified),–,inactive
O=C=NC1CCC(CC2CCC(N=C=O)CC2)CC1 (stereo unspecified),–,active: 6.86 µM
CN1[C@@H]2CC[C@H]1CC(OC(=O)c1c[nH]c3ccccc13)C2 (stereo partly specified),–,"inconclusive: 31.2 µM [cytotoxic, single point]"
CCN1CCN(c2cc3c(cc2F)c(=O)c(C(=O)O)cn3C2CC2)CC1,–,inactive
ON(Cc1ccccc1)Cc1ccccc1,–,inactive
CCCCOCC(C)O (stereo unspecified),–,inactive
CCC(Cl)CCC(Cl)C(Cl)CC(Cl)C(Cl)C(Cl)CCl (stereo unspecified),–,"inconclusive: 27.1 µM [rising, partial curve, poor fit]"
C=CC(C)CCC=C(C)C (stereo unspecified),–,inactive
CN(C)CCCCl,–,"inconclusive: 71.1 µM [rising, partial curve, poor fit]"
OCc1ccc(Cl)cc1Cl,–,"inconclusive: 38.6 µM [rising, partial curve, poor fit]"
N#CCC(=O)NN,–,"inconclusive: 5.96 µM [rising, full curve]"
OCC1CC2CC1C1CCC(CO)C21 (stereo unspecified),–,"inconclusive: 30.6 µM [cytotoxic, partial curve, poor fit]"
O=C1C(CCS(=O)c2ccccc2)C(=O)N(c2ccccc2)N1c1ccccc1 (stereo unspecified),–,inactive
NNc1nncc2ccccc12,–,"inconclusive: 0.9 nM and inconclusive: 68.6 µM [cytotoxic, single point]"
ClC(Cl)Cl,inconclusive: 23.2%,–
CC1CCN(CCCC(=O)c2ccc(F)cc2)CC1,–,"inconclusive: 26.6 µM [cytotoxic, partial curve]"
O=C(O)c1cc(N=Nc2ccc(S(=O)(=O)Nc3ccccn3)cc2)ccc1O,–,"inconclusive: 61.3 µM [cytotoxic, partial curve] and inconclusive: 54.5 µM [cytotoxic, partial curve]"
O=C1c2ccccc2C(=O)C1c1ccc2cc(S(=O)(=O)O)cc(S(=O)(=O)O)c2n1,–,active: 52.5 µM
C[Si]1(C)N[Si](C)(C)N[Si](C)(C)N1,–,inactive

# System: not listed separately
# Assay: qHTS assay to identify small molecule antagonists of the estrogen receptor alpha (ER-alpha) signaling pathway - cell viability counter screen (AID 743074; calls by dose curve;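 further: HEK293 cells carrying ER-alpha-UAS-bla reporter stimulated with 17beta-estradiol; nearly all actives have a fitted effect of over 45% in size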)
# Conditions: ERalpha-bla HEK293 viability, CellTiter-Glo luminescence, 18 h; series mostly up to 69.4 µM
row,Compound,Potency
1,CN(C)C(=O)Nc1ccc(Cl)c(Cl)c1,inactive
2,Cc1ccc(N(C)C)cc1,"inconclusive: 54.9 µM [rising, single point]"
3,OCC(O)CS (stereo unspecified),inactive
4,CCCCc1ccc2nc(NC(=O)OC)[nH]c2c1,"inconclusive: 0.0406 µM [rising, full curve, poor fit]"
5,CCOC(=O)/C=C/C(=O)O,"inconclusive: 15.5 µM [cytotoxic, partial curve, poor fit]"
6,C[C@H]1C[C@@H]2[C@H]([C@@H](O)C[C@@]3(C)[C@H]2CC[C@]3(O)C(=O)CO)[C@@]2(C)C=CC(=O)C=C12,"inconclusive: 11.5 µM [rising, single point]"
